Measurements published in the supplement of paper PMC11417369.
This is one part of the list.

The sequences below were run on PF3D7_0420300 AP2 domain 1 (GST-tagged) (assay: gcPBM binding intensity (ln(normalized median fluorescence intensity)); higher = stronger DNA binding).
Procedure, shortened: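 Plasmodium falciparum DNA-binding domains carrying a GST tag were expressed in E. coli and applied for 1 h, at about 25 μg on average, to an Agilent 4 × 180k array. The array held primer-extended double-stranded 36-bp intergenic genomic probes together with negative controls, and binding took place in 1× PBS with 1% milk, 0.2 mg/ml BSA, 0.5% salmon testes DNA and 0.03% Triton X-100. An Alexa488 anti-GST antibody detected bound protein, and the array was scanned at 488 nm. Binding intensity is taken as the highest Masliner-normalised natural-log median intensity across replicate spots of either probe orientation.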

| Sequence | gcPBM binding intensity (ln) |
| --- | --- |
| GCGTAGTTCGGAAGGGTGCTTTTTTGTTAATAAAAA [GTGCAC_site9592] | 8.98 |
| ACATACGAAAATTGGAAGGATAGATAAAAAGAAAAT [CACACA_negctrl_site51] | 9.51 |
| ATATAAAAAAGAGGGAGTACTTGTAACAAAATAATA [XGTACX_site8679] | 9.55 |
| GTACAGATGTAGTATGCATGTAATTATATATAAATT [TGCATGCA_site292] | 9.4 |
| ACGTAGTAGGTATTATGTACATATTTATAAGTATAA [XGTACX_site7336] | 9.16 |
| ACATGTTCATAATTTTGTACATATTTTTATGAACAT [XGTACX_site3976] | 9.18 |
| TATATAAATGTATACACACACATATAAATATAAATA [CACACA_site6751] | 9.71 |
| ATTCTAATTACATATACACACAAAGGTTCATAACAA [CACACA_site3076] | 9.42 |
| TTCCCATGTAATATTAAACACACACCCATATAACAC [CACACA_site7905] | 9.76 |
| TAACTACTAGAAAAAACACACAAAAAGTAAATATAT [CACACA_site2740] | 9.82 |
| TGATTTTTTTTTTTTTTTTTTTTTTTTTTAGTTTGC [CACACA_negctrl_site1057] | 8.77 |
| TGTTTAACATTTATATGTACATATATTCACATATTA [XGTACX_site342] | 9.29 |
| TAAAATATAAGACACACACACATATATTTATATATC [CACACA_site6248] | 10.1 |
| TACCAAATCACCCCTTGTACCCATTTTAAAATTTTC [XGTACX_site396] | 9.47 |
| ATAAACAGATCATATACATGCATATATGTAGAATAA [TGCATGCA_site157] | 9.34 |
| TCCATTCTATTTTTTACACACGTATGTAAATATTAT [CACACA_site2686] | 9.55 |
| AGAATATATATAATAGTGCAATGTACAATGAACAAA [GTGCAC_site9577] | 9.38 |
| ACGAATTAAATGGATTAATATATATATGTATATTTA [CACACA_negctrl_site1512] | 9.1 |
| CGCAACACTATTTGGGTGCTCTTCAAAAAAAAAAAA [GTGCAC_site9598] | 8.56 |

| Sequence | gcPBM binding intensity (ln) |
| --- | --- |
| TTAAATACTTTTCGAAGTACATTATATATATAATAT [XGTACX_site7530] | 9.03 |
| ATTTGCTTTTATTTTACACACTTGCTCCTGTTGTAC [CACACA_site1088] | 10 |
| AAAAAAAAATATATTGCACACCTCTCAATAAAAAAA [CACACA_site172] | 9.32 |
| AATACATAAATATTTTGTACATATTATATAAAATAT [XGTACX_site1627] | 9.17 |
| ATAAATGAAGATAAATTAAAAAAAAAAAAAAAAAAA [CACACA_negctrl_site992] | 8.24 |
| ATAACATACATAACAACACACAATATTTATATGTAT [CACACA_site210] | 9.71 |
| GAATGTATTCATAAATGTACTTATAATATTATAATA [XGTACX_site3466] | 9.09 |
| CGACTTTTAAAATATACACACATATATATATATATA [CACACA_site825] | 9.43 |
| CTTGTACCTAGAAATACACACAATTATATAACTTAT [CACACA_site2838] | 9.47 |
| CCACATGAGATGATTACACACATATAAATATTTACA [CACACA_site6222] | 9.48 |
| TATAAGAAAATAATGTGTACTAAATAATAAATGCAT [XGTACX_site1204] | 9.54 |
| ACTTTTTAATAATAATAATTATATATATATATATAT [TGCATGCA_negctrl_site459] | 9.23 |
| ATATATATTTAATTTACACACAAAAAAAATTGTTGG [CACACA_site961] | 9.49 |
| TATAAACAGACGAAAACACACATATGTAAATATATA [CACACA_site4428] | 9.6 |
| ATAAAAATAATATCATGTACATATGTGTATTGTATT [XGTACX_site1768] | 9.29 |
| TACAAAAAGTTATACACACACGTACCTATAAATAGA [CACACA_site6571] | 9.67 |
| TATTTCTTTTGGTTGGTGCATAAAATAATACAATAT [GTGCAC_site9916] | 9.28 |
| CAGACCTCTTTGTCATGTACATAAAAAAATAAAGAA [XGTACX_site7887] | 9.07 |
| TTATCCTATACAAGGGAAAAATAAAATAAAATAAAT [TGCATGCA_negctrl_site272] | 9.19 |

| Sequence | gcPBM binding intensity (ln) |
| --- | --- |
| TAAAAAATATTATATACACACAGTATAAAAAAAAAT [CACACA_site4012] | 9.53 |
| ATTGATTATTTTCTAGTGCATAAAATAATTTTTTTT | 9.13 |
| ATATACATATTATAATGTACATATTTTAATAACCTT [XGTACX_site7617] | 9.2 |
| AGTGTCATATAAAATTGTACTTTTTTTTTTTTCTTT [XGTACX_site5651] | 9.4 |
| AAATGTTGAAAAATATGTACATATTATATATATTAT [XGTACX_site1165] | 9.23 |
| TAAGAAAGACAAAAAAAATGAAAAGAAAAAAAATGA [CACACA_negctrl_site1469] | 9.32 |
| AATATAAGCAAATACACACACACATATATATATATA [CACACA_site3805] | 10 |
| ATTTAGAAAAAATATACACACAGCCTAAACATGCAT [CACACA_site4067] | 9.64 |
| TATTTATTTGTTTAAGGTACAGAACAAATTTTTATT [XGTACX_site7414] | 8.97 |
| AAATGTTCTTAAAAATGAATAATATATATATATATA [CACACA_negctrl_site796] | 8.94 |
| CATAAATACATACATACACACATATATATATATATA [CACACA_site2106] | 9.5 |
| ATATTTATTATTATATGTACGTAACATCTTTATAAA [XGTACX_site7016] | 9.22 |
| ATTCTATTATAATATTCACACACTAACGTAAATCAT [CACACA_site2750] | 9.55 |
| TAATGACTGAAAAATTGTACATATGTATATATGTAT [XGTACX_site2415] | 9.18 |
| TATACATACATACATACACACACACCGATATATATA [CACACA_site7896] | 10.1 |
| ATAATTTTCCATATTTGTACATATTTTTTTCCCTTG [XGTACX_site8146] | 9.35 |
| AATATAAATAAAAACACACACAATGGTACAGATATA [CACACA_site5930] | 10.1 |
| AATTTAAATTAGAATTGTACTAGAAAAGGAATATAT [XGTACX_site6162] | 9.3 |
